Among all 3,200 compounds or so, about 300 (9.4%) showed activity. Only a part is listed here, and it is no random draw.
Test system: A673/TR/shEF
Assay: cell viability (LOESS-normalised, relative to median of negative controls) (log2 ratio); higher = more viable cells (less compound effect), active = hit call of the paper (over 3 MAD below the median)
Settings: treatment time: 72 h
In short: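 Viability of A673/TR/shEF Ewing sarcoma cells was determined by CellTiter-Glo luminescence. The cells, at 1,500 per well in 384-well plates, were grown with or without doxycycline from 24 h before compound addition to switch on EWS-FLI1 shRNA knockdown, then exposed for three days to library compounds at two or more concentrations or to DMSO controls. Signals were LOESS-corrected plate by plate, normalised to the negative-control median and log2-transformed.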

[1] = 0.25 µM, library screen: screen2, EWS-FLI1 expression: high (no doxycycline)
[2] = 0.25 µM, library screen: screen2, EWS-FLI1 expression: low (doxycycline-induced shRNA knockdown)
[3] = 2.5 µM, library screen: screen2, EWS-FLI1 expression: high (no doxycycline)
[4] = 2.5 µM, library screen: screen2, EWS-FLI1 expression: low (doxycycline-induced shRNA knockdown)
[5] = 0.025 µM, library screen: screen1, EWS-FLI1 expression: high (no doxycycline)
[6] = 0.025 µM, library screen: screen1, EWS-FLI1 expression: low (doxycycline-induced shRNA knockdown)
[7] = 0.25 µM, library screen: screen1, EWS-FLI1 expression: high (no doxycycline)
[8] = 0.25 µM, library screen: screen1, EWS-FLI1 expression: low (doxycycline-induced shRNA knockdown)
[9] = 2.5 µM, library screen: screen1, EWS-FLI1 expression: high (no doxycycline)
[10] = 2.5 µM, library screen: screen1, EWS-FLI1 expression: low (doxycycline-induced shRNA knockdown)
[11] = 25 µM, library screen: screen1, EWS-FLI1 expression: high (no doxycycline)
[12] = 25 µM, library screen: screen1, EWS-FLI1 expression: low (doxycycline-induced shRNA knockdown)

Measured: cell viability (log2)

CCCCCCCCCCCCCC(=O)O[C@@H]1[C@@H](C)[C@@]2(O)[C@@H](C=C(CO)C[C@]3(O)C(=O)C(C)=C[C@@H]23)[C@@H]2C(C)(C)[C@]12OC(C)=O
active: [1] -0.184 | [2] -0.159 | [3] -0.478 | [4] -0.292

O=P(O)(O)Cc1ccccc1
active: [9] -0.281 | [10] -0.453 | [11] -0.356 | [12] -1.06
inactive: [5] 0.115 | [6] -0.0367 | [7] 0.209 | [8] -0.089

COc1cc(C=C(C#N)C#N)cc(O)c1O
inactive: [1] 0.15 | [2] 0.104 | [3] 0.12 | [4] 0.124

COc1cc([C@@H]2c3cc4c(cc3[C@H](OC(C)=O)[C@H]3COC(=O)[C@H]23)OCO4)cc(OC)c1OC
active: [7] -3.77 | [8] -0.983 | [9] -3.58 | [10] -1.13

OC[C@H]1O[C@@H](n2cnc3cc(Cl)c(Cl)cc32)[C@H](O)[C@@H]1O
active: [9] -0.183 | [11] -0.16
inactive: [5] 0.182 | [6] -0.067 | [7] 0.227 | [8] 0.0134 | [10] 0.128 | [12] 0.0669

C[N+]1(C)CCOC(O)(c2ccc(-c3ccc(C4(O)C[N+](C)(C)CCO4)cc3)cc2)C1 (stereo unspecified)
inactive: [1] 0.187 | [2] 0.0871 | [3] 0.129 | [4] -0.00984

Nc1ccncc1
inactive: [1] 0.0331 | [2] 0.0977 | [3] 0.0595 | [4] 0.144

COc1ccc(-n2nc(C(F)(F)F)cc2-c2ccc(Cl)cc2)cc1
inactive: [1] 0.23 | [2] 0.0593 | [3] 0.169 | [4] 0.155

CN[C@@H]1[C@@H](O)[C@@H](O[C@@H]2[C@@H](O)[C@H](O[C@H]3O[C@H](CN)CC[C@H]3N)[C@@H](N)C[C@H]2N)OC[C@]1(C)O
inactive: [7] 0.0502 | [8] -0.0312 | [9] 0.184 | [10] 0.0476

CN=C1CN(O)C(c2ccccc2)=c2cc(Cl)ccc2=N1
inactive: [7] 0.0853 | [8] 0.0654 | [9] 0.0997 | [10] 0.0898

C[C@H]1C[C@@H](O)[C@]2(O)[C@@]13CC(=O)OC[C@@]2(C)[C@](C)(O)C(=O)C3
inactive: [7] 0.0914 | [8] -0.0111 | [9] 0.0806 | [10] 0.024

CCCCCCC(C)(C)c1ccc([C@H]2C[C@@H](O)CC[C@H]2CCCO)c(O)c1
inactive: [1] 0.0289 | [2] 0.103 | [3] 0.129 | [4] 0.122

C[N+](C)(C)CC#CCN1CCCC1=O
inactive: [1] 0.0847 | [2] 0.0833 | [3] -0.00818 | [4] 0.0426

NC(=O)c1ccc(OCC(O)CN2CC=C(c3ccc(F)cc3)CC2)cc1 (stereo unspecified)
inactive: [1] 0.0654 | [2] 0.0528 | [3] 0.156 | [4] 0.0805

CC(C)=CC1C(C(=O)OCc2cccc(Oc3ccccc3)c2)C1(C)C (stereo unspecified)
inactive: [7] 0.00222 | [8] 0.0363 | [9] 0.0748 | [10] 0.0487

NC(=O)CN1CC(O)CC1=O (stereo unspecified)
inactive: [1] 0.159 | [2] 0.0927 | [3] 0.0479 | [4] 0.0838

C/C=C(/C)C(=O)O[C@H]1CC[C@@]2(C)[C@@H]3CC[C@H]4[C@]5(O)C[C@H](O)[C@@]6(O)[C@@H](CN7C[C@@H](C)CC[C@H]7[C@@]6(C)O)[C@]5(O)C[C@@]42O[C@]13O
inactive: [7] 0.0954 | [8] 0.0385 | [9] 0.186 | [10] -0.0784

COc1cc([C@@H]2c3cc4c(cc3[C@H](O)[C@H]3COC(=O)[C@@H]23)OCO4)cc(OC)c1OC
active: [9] -2.1 | [10] -0.572

CN1CCC(c2c[nH]c3ccc(O)cc23)CC1
inactive: [1] 0.195 | [2] 0.166 | [3] 0.184 | [4] 0.0715

CC(C)[C@@]1(NC(=O)[C@@H]2C[C@@H]3c4cccc5[nH]cc(c45)C[C@H]3N(C)C2)O[C@@]2(O)[C@@H]3CCCN3C(=O)[C@H](Cc3ccccc3)N2C1=O
inactive: [1] 0.0481 | [2] 0.0917 | [3] 0.11 | [4] 0.0904

CC(=O)C1=C(O)[C@@H]2[C@H]3c4c[nH]c5cccc(c45)C[C@H]3C(C)(C)N2C1=O
inactive: [7] 0.0498 | [8] 0.042 | [9] 0.0855 | [10] 0.00492

CC1Cc2cc3c(cc2C(c2ccc(N)cc2)=NN1)OCO3 (stereo unspecified)
0.339: [1]
inactive: [2] 0.0421 | [3] 0.085 | [4] 0.09

CC(C)CC(NC(=O)C(Cc1ccccc1)NC(=O)CNC(=O)CNC(=O)C(N)Cc1ccc(O)cc1)C(=O)O (stereo unspecified)
inactive: [7] 0.0697 | [8] 0.0904 | [9] 0.0902 | [10] 0.179

CC(N)Cc1c[nH]c2ccc(OCc3cccs3)cc12 (stereo unspecified)
inactive: [1] 0.0866 | [2] 0.123 | [3] 0.029 | [4] 0.0523

CC1(C)C2C[C@@H](O)[C@]3(C)C(CC[C@@]4(C)[C@H](c5ccoc5)OC(=O)[C@H]5O[C@]543)[C@@]2(C)[C@@H](O)C[C@H]1O (stereo partly specified)
inactive: [7] 0.0675 | [8] 0.0959 | [9] 0.135 | [10] 0.0584

COc1ccc2c3c([nH]c2c1)C(C)=NCC3
inactive: [7] 0.0653 | [8] 0.0133 | [9] 0.0867 | [10] 0.107

CCCN1CCC[C@@H]2Cc3[nH]ncc3C[C@H]21
inactive: [1] 0.208 | [2] 0.0276 | [3] 0.158 | [4] 0.0446

Clc1cc(I)cc(Cl)c1NC1=NCCN1
inactive: [1] 0.191 | [2] 0.151 | [3] 0.106 | [4] 0.154

C[C@@H]1O[C@@H](O[C@H]2C[C@@H](O)[C@]3(CO)[C@H]4[C@H](O)C[C@]5(C)[C@@H](C6=CC(=O)OC6)CC[C@]5(O)[C@@H]4CC[C@]3(O)C2)[C@H](O)[C@H](O)[C@H]1O
active: [7] -2.32 | [8] -1.95 | [1] -0.747 | [2] -0.523 | [9] -3.06 | [10] -3.54 | [3] -4.02 | [4] -3.81
